Results: the supplement of paper PMC3334620
The full ranking holds about 33,000 sequences; the median of “E-score (-0.5 to 0.5)” is about -0.035, and the highest 2% start at about 0.35. The list shows a part of the results.

molecular target: T1, Pdr3 (UniProt P33200); experiment: PBM E-score (8-mer binding enrichment) (E-score (-0.5 to 0.5)); higher = stronger / more preferred TF binding; most listed sequences are background and not binding sites; conditions: protein concentration: 200 nM; construct: GST-full length
T1 sequence: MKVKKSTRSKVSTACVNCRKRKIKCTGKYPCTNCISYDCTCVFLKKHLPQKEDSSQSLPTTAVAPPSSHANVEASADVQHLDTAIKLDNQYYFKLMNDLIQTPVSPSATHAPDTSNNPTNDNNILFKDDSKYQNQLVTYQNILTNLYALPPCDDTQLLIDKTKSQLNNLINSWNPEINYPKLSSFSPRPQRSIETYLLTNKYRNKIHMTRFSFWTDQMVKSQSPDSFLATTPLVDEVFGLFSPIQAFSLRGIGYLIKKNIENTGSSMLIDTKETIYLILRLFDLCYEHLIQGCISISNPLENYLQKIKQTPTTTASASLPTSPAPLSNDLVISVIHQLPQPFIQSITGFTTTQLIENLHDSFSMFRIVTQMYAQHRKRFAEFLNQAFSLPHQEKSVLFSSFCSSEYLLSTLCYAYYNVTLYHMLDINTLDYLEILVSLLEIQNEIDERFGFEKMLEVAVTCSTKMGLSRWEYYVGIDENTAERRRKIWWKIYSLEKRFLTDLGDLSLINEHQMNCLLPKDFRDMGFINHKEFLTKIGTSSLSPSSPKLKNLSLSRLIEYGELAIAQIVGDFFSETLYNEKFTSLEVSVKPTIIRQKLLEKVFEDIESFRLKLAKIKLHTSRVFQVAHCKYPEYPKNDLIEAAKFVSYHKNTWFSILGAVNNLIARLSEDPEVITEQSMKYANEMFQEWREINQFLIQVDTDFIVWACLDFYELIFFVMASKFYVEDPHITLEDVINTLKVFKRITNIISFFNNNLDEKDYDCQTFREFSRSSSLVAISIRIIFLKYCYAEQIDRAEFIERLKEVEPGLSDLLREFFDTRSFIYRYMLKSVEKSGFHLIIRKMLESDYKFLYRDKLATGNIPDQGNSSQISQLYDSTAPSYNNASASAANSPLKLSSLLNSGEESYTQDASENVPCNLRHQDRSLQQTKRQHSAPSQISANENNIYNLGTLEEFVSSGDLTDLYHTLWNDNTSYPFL
How it was run: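 Masliner-normalised scans of fluorescent anti-GST signal were the basis for scoring. That signal came from GST-tagged yeast transcription factors applied at about 100-200 nM to double-stranded universal all-10-mer Agilent arrays on fresh or once-stripped slides. Each ungapped eight-base word, pooled with its reverse complement, received an E-score from the Universal PBM Analysis Suite.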

Sequence	PBM E-score
GGAGTCCA	0.00397
TAATTAAA	-0.00203
ATCATTGG	-0.173
CATCCCTC	0.0487
TAAATGCA	0.00746
TGAACGAA	-0.195
CAAGTGAA	-0.0585
ATACACCC	0.138
ACTCCGCC	0.343
ACTCACCC	0.205
TAGAACGA	-0.204
AATATGTA	-0.019
AGGTTCGC	-0.0471
ACGACAGG	-0.0216
GCTCAGGA	-0.191
AAAGTGTT	0.0165
ACGAAGTA	-0.136
CGTTTTAG	-0.195
GGACCACA	0.157
AGGTTCCA	-0.018
AATGCGGT	0.116
CCTCCAGA	0.00494
AGGCAGAT	-0.0983
ACTCGGGG	0.0393
GGACTGTA	-0.07

Sequence	PBM E-score
CGGCAAAC	0.285
ACATCGCT	-0.144
CGGGGTGA	0.214
AGCGAGGC	-0.0299
AAGCGTAC	-0.244
ATAGGATG	-0.0644
AATCTATA	-0.0326
GCGAGTTA	-0.0865
CAGCTTCG	-0.0885
GACTTCGA	-0.315
CGCAACCG	0.231
GATTTAGA	0.0216
CACGTACA	-0.202
AGTCCGCC	0.324
ATAGTAAG	-0.218
AAAACCTC	0.159
CGCCCTGC	0.137
GAGGGAGA	-0.2
ATTAAGCA	-0.112
CAGTGCTC	-0.213
TCGGTGAA	0.0249
AAGCTTAC	-0.251
TAACATGA	-0.188
AGCCTACG	-0.0473
CATTGGAC	-0.0109

Sequence	PBM E-score
CGTAAATC	0.0612
CGAGGTTA	0.113
CCTTTTTA	-0.199
TGAGGCCA	-0.0241
ACTGTGCA	-0.172
CCTGGTGC	-0.0048
GCGGAGGA	0.176
AAACGGAA	0.469
ACGCGTGG	0.127
CCAGACGC	-0.232
CAACTAAC	0.126
CCTATGGA	-0.127
ATGTGTAC	-0.128
AGCACTAC	-0.222
ATGAGCTG	-0.0649
ACCCTGCG	0.0171
AAGTGCCT	-0.279
CAACCGGC	0.232
ATTAGCTA	-0.00451
ATTCGCCC	0.043
ATAGCGCC	0.0818
CAAGCAGA	-0.0291
AACCTAAC	0.0498
AAGGTGGG	-0.203
TGCCCAAA	-0.0904

Sequence	PBM E-score
CCAGATAA	0.00642
GGCATTTA	-0.0223
ATACCCTG	-0.076
AGAATAAG	-0.0601
CCTGTAGA	-0.022
GCCATCTA	-0.118
AGATCAAA	-0.112
CTAAGCCA	-0.265
CTGAGTAA	-0.175
ATAATAAC	0.0962
ACTCCACG	0.00846
AAATGAAG	0.0448
AACGCGCA	-0.0898
ACTGCTGA	-0.261
ACAAACCA	-0.138
AGTTGGAC	-0.109
CTCCTTGA	-0.203
ACCAAGCT	-0.157
CATGTTGG	-0.273
GGCAATCA	0.017
CACCAGGG	-0.192
ACGAGTAT	-0.0786
AGTCCCAG	-0.108
AAAAAATT	-0.00567
CCGTTAAC	0.221

Sequence	PBM E-score
GGGCCGCA	0.126
GACTGGGC	-0.214
GAATACTC	-0.0365
ATACGAGA	-0.289
ACGTGGGG	-0.0273
CGATCTGC	0.137
GCGAGGTA	-0.104
GTCGATGA	0.0203
CCGAGGCC	0.227
CAACTGTC	-0.0666
ATACTTCC	0.219
CCTCTAGA	-0.199
ATACTTGC	-0.102
GCGAGTAC	-0.0233
AGTCAGCA	-0.256
ACAGGGGA	-0.216
CCTTGTCC	0.118
TACGTGGA	-0.0157
CGTTGAAG	-0.129
CTCTGCTC	-0.0646
AGCTTAAT	0.146
GATCTGTA	0.00649
AGGTCATG	-0.18
GTATCTGA	-0.146
CCGTGACA	0.244

Sequence	PBM E-score
AGGCTTTG	-0.0853
CGGGTGGC	0.264
CTCCCGGC	0.368
AAACGTCT	-0.245
CGTTGTCA	0.00446
AAGTGGAT	-0.0435
AGGTCAGA	-0.118
ATGCTCGG	0.199
TTAGTCAA	-0.275
AACCCTCT	-0.255
AGCCTAGC	-0.135
AGACCCGA	0.274
CCGCGTCA	0.0139
AATCGAAG	0.0615
CACTCCGG	0.351
CAATCCTG	0.0156
ATGGCTGA	-0.135
CGCCGGAC	0.316
ATTTGCGG	0.309
CCGATGCC	0.143
TAGCGAGA	-0.075
AACCCGAA	0.196
TGCTACCA	-0.177
CTACACTC	-0.144
ACCTCTTG	-0.0415

Sequence	PBM E-score
TAGCACGA	-0.123
CCGGGTAC	0.303
CTCACCCA	0.0849
CCGCAAAA	0.124
ATTAGACC	-0.238
GTGGGAAA	-0.0227
CAACGACC	0.0721
AGGACCCC	-0.0385
CGGGCCCA	0.0442
CCGATTCA	-0.0319
ACAACTTC	0.167
CGGCCTCA	0.165
GAATTAGA	-0.0794
ACACTTTG	-0.123
GCTGCAAA	-0.0739
TTATGAAA	0.0764
AGCTCGTC	-0.152
GACTATCC	0.0419
ATTAGTAG	-0.102
CTCCCATC	0.019
AACAACTT	0.105
GCCACGGA	0.415
